The results in this text go back to the BET-seq Pho4 binding data (Le et al. 2018).

This is one part of the list. These are noisy estimates, calculated here from bound and input reads.

For this assay, the target named is T1, Pho4 (S. cerevisiae) (UniProt P07270).
T1 sequence: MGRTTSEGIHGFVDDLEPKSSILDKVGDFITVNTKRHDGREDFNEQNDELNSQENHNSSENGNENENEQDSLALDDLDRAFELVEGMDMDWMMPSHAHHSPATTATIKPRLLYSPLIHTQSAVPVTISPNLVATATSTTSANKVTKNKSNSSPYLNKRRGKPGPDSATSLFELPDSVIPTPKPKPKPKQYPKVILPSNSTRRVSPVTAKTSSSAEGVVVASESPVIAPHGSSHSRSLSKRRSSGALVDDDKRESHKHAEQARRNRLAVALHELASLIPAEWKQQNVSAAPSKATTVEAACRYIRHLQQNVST
In words: relative binding free energy (BET-seq); higher = weaker binding. As to conditions: reference: library average.
As to AAGTTCACGTGTAGAG, the “relative binding free energy” value was found to be 0.31 kcal/mol.

As for TGTACCACGTGATGTG, the “relative binding free energy” value came to 0.12 kcal/mol.

Turning to TGTATCACGTGAAAAT, the “relative binding free energy” value was 0.35 kcal/mol.

In the case of ATAGCCACGTGTTGTG, the “relative binding free energy” value is -0.11 kcal/mol.

ATGTACACGTGACGTG: the “relative binding free energy” value worked out at 0.22 kcal/mol.

Take TTGCACACGTGTGTTA: the “relative binding free energy” value came out at 0.08 kcal/mol.

On to TAGTGCACGTGTTAAG, for which the “relative binding free energy” value was determined as 0 kcal/mol.

ATTAACACGTGCTTGG: the “relative binding free energy” value was -0.13 kcal/mol.

For the sequence AAATGCACGTGGGCGT, the “relative binding free energy” value is -0.18 kcal/mol.

For the sequence AGGGTCACGTGTGGAA, the “relative binding free energy” value turned out to be 0.16 kcal/mol.

Consider TATTTCACGTGCGTAG, for which the “relative binding free energy” value is 0.31 kcal/mol.

With GCTTACACGTGGAGTG, the “relative binding free energy” value was found to be 0.03 kcal/mol.

As for CGAGTCACGTGGGAGC, the “relative binding free energy” value was determined as 0.09 kcal/mol.

GTACGCACGTGGTATG: the “relative binding free energy” value is -0.21 kcal/mol.

On to CGGGGCACGTGGTATC, for which the “relative binding free energy” value is -0.17 kcal/mol.

As to ACTTACACGTGTTGTT, the “relative binding free energy” value came to 0.08 kcal/mol.

For the sequence TTAATCACGTGAGGAG, the “relative binding free energy” value amounted to 0.23 kcal/mol.

Regarding TTATTCACGTGTAAAA, the “relative binding free energy” value stood at 0.22 kcal/mol.

Regarding GCGGGCACGTGCCGGT, the “relative binding free energy” value was -0.12 kcal/mol.

For the sequence GGTTTCACGTGTCGAA, the “relative binding free energy” value worked out at 0.38 kcal/mol.

As for TCTGACACGTGGGGCT, the “relative binding free energy” value is -0.04 kcal/mol.

Take TCGTTCACGTGCGGTG: the “relative binding free energy” value worked out at 0.29 kcal/mol.

Take GGAGCCACGTGTTAGG: the “relative binding free energy” value is -0.01 kcal/mol.

As for GTGAGCACGTGGTTCG, the “relative binding free energy” value was -0.01 kcal/mol.

With GGGAACACGTGTACGT, the “relative binding free energy” value turned out to be 0.1 kcal/mol.

Consider GTGCGCACGTGTTGCG, for which the “relative binding free energy” value is -0.06 kcal/mol.

Consider CTTATCACGTGATGTG, for which the “relative binding free energy” value amounted to 0.12 kcal/mol.

In the case of GCGGTCACGTGCGTGT, the “relative binding free energy” value is -0.11 kcal/mol.

Turning to TAGTACACGTGTGTTG, the “relative binding free energy” value is -0.04 kcal/mol.

For CTTGGCACGTGGAAGG, the “relative binding free energy” value was -0.03 kcal/mol.

As for GGGAGCACGTGTGTTG, the “relative binding free energy” value was determined as 0.01 kcal/mol.

On to TGTAACACGTGGAGAG, for which the “relative binding free energy” value came to 0.09 kcal/mol.

For TTAGTCACGTGTAATG, the “relative binding free energy” value worked out at 0.19 kcal/mol.

Consider TGAGTCACGTGACGTT, for which the “relative binding free energy” value is 0.07 kcal/mol.

For the sequence TGCTCCACGTGGGATT, the “relative binding free energy” value was 0.05 kcal/mol.

Regarding AGTGCCACGTGTGTGA, the “relative binding free energy” value was -0.11 kcal/mol.

With GAGATCACGTGGAGGT, the “relative binding free energy” value came to 0.15 kcal/mol.

ATTAACACGTGGGATG: the “relative binding free energy” value was -0.12 kcal/mol.

In the case of GTGGGCACGTGAAGGT, the “relative binding free energy” value is 0.24 kcal/mol.

As to TGGTACACGTGTTTAT, the “relative binding free energy” value is -0.03 kcal/mol.

As for GGTATCACGTGTTCTT, the “relative binding free energy” value was 0.22 kcal/mol.

Take TAGGTCACGTGTATTG: the “relative binding free energy” value amounted to 0.04 kcal/mol.

ATGGACACGTGCAGGG: the “relative binding free energy” value was -0.04 kcal/mol.

CACGGCACGTGTGTGG: the “relative binding free energy” value is -0.15 kcal/mol.

For the sequence TGAAACACGTGAGGAT, the “relative binding free energy” value turned out to be 0.27 kcal/mol.

Consider GTGGACACGTGTGTCT, for which the “relative binding free energy” value amounted to 0.09 kcal/mol.

On to GGTAACACGTGGTTCT, for which the “relative binding free energy” value was 0.04 kcal/mol.

Take TTAAGCACGTGAGAGT: the “relative binding free energy” value worked out at 0.21 kcal/mol.

As for TGGTACACGTGTCATT, the “relative binding free energy” value was 0 kcal/mol.

Turning to TATAGCACGTGTTCGG, the “relative binding free energy” value was -0.1 kcal/mol.

As to CAATACACGTGTTGTG, the “relative binding free energy” value was -0.07 kcal/mol.

As to GTTGTCACGTGGGCAC, the “relative binding free energy” value was 0.07 kcal/mol.

GTTGTCACGTGAAATG: the “relative binding free energy” value came to 0.23 kcal/mol.

For TAGTCCACGTGAGTGG, the “relative binding free energy” value came to 0.06 kcal/mol.

For the sequence GGTATCACGTGATTGG, the “relative binding free energy” value was found to be 0.27 kcal/mol.

For TTATGCACGTGGTGAC, the “relative binding free energy” value is -0.16 kcal/mol.

TCTTTCACGTGCTGGT: the “relative binding free energy” value came out at 0.24 kcal/mol.

Regarding GTGGGCACGTGGGCTC, the “relative binding free energy” value is -0.14 kcal/mol.

On to TAGGCCACGTGATATG, for which the “relative binding free energy” value stood at 0.07 kcal/mol.

As to TAGGGCACGTGAAAGA, the “relative binding free energy” value stood at 0.18 kcal/mol.

Consider GACGGCACGTGGGGAA, for which the “relative binding free energy” value is -0.14 kcal/mol.

Consider TGTTTCACGTGTGTCG, for which the “relative binding free energy” value is 0.2 kcal/mol.

With TATTGCACGTGAGGTG, the “relative binding free energy” value came out at 0.27 kcal/mol.

As to ATGGGCACGTGGAAGC, the “relative binding free energy” value was -0.09 kcal/mol.

In the case of ATGGGCACGTGCGCTT, the “relative binding free energy” value was -0.28 kcal/mol.

Consider GGTGTCACGTGTAAGA, for which the “relative binding free energy” value came out at 0.18 kcal/mol.

Turning to ATTCGCACGTGGTAGT, the “relative binding free energy” value is -0.13 kcal/mol.

For TGGTTCACGTGGCGGT, the “relative binding free energy” value amounted to 0.34 kcal/mol.

For the sequence TTTAGCACGTGCTGGT, the “relative binding free energy” value is -0.01 kcal/mol.

Turning to GTTGGCACGTGCAGGC, the “relative binding free energy” value is -0.07 kcal/mol.

As for GGTCTCACGTGATTTG, the “relative binding free energy” value came to 0.57 kcal/mol.

As to TTTATCACGTGAGGGG, the “relative binding free energy” value is 0.37 kcal/mol.

For the sequence TCGTTCACGTGGGTAG, the “relative binding free energy” value came out at 0.18 kcal/mol.

Consider ACCGGCACGTGGTAGG, for which the “relative binding free energy” value was -0.14 kcal/mol.

Turning to TGGTCCACGTGAGGGC, the “relative binding free energy” value was 0.22 kcal/mol.

TCGGACACGTGTGATG: the “relative binding free energy” value amounted to 0.1 kcal/mol.

Take TTGGACACGTGCAGGG: the “relative binding free energy” value was -0.03 kcal/mol.

Take CGGGTCACGTGAGGCG: the “relative binding free energy” value amounted to 0.28 kcal/mol.

For the sequence TAATTCACGTGTCGTA, the “relative binding free energy” value worked out at 0.19 kcal/mol.

For the sequence GTGGACACGTGTTGGC, the “relative binding free energy” value is 0.04 kcal/mol.

As for GTAGTCACGTGGGATC, the “relative binding free energy” value was 0.15 kcal/mol.

For the sequence GCTTTCACGTGAAGGT, the “relative binding free energy” value was found to be 0.36 kcal/mol.

In the case of TAGAGCACGTGTCGTT, the “relative binding free energy” value was -0.07 kcal/mol.

With GTAAGCACGTGGGATC, the “relative binding free energy” value is -0.01 kcal/mol.

As to ATGTGCACGTGTGATC, the “relative binding free energy” value worked out at 0.15 kcal/mol.

In the case of GGTAGCACGTGATGGT, the “relative binding free energy” value is 0.17 kcal/mol.

For GCGGTCACGTGCGGAG, the “relative binding free energy” value was 0.13 kcal/mol.

Turning to GGTTGCACGTGAAAAT, the “relative binding free energy” value was 0.35 kcal/mol.

As for AGAGGCACGTGCGGTT, the “relative binding free energy” value is 0.04 kcal/mol.

With TTCTTCACGTGTTACG, the “relative binding free energy” value stood at 0.21 kcal/mol.

With TATACCACGTGTTTTT, the “relative binding free energy” value was -0.08 kcal/mol.

For GCATTCACGTGCTGTG, the “relative binding free energy” value worked out at 0.39 kcal/mol.

For TTTAGCACGTGATACG, the “relative binding free energy” value is -0.08 kcal/mol.

For the sequence GGAATCACGTGGTATT, the “relative binding free energy” value is -0.02 kcal/mol.

Regarding CGGGACACGTGTATTG, the “relative binding free energy” value came to 0.09 kcal/mol.

With ATCTGCACGTGTAGAG, the “relative binding free energy” value came out at 0.12 kcal/mol.

Regarding TGGGCCACGTGTTTCT, the “relative binding free energy” value is 0.04 kcal/mol.

For the sequence CTAGTCACGTGATTTT, the “relative binding free energy” value worked out at 0.23 kcal/mol.

For the sequence TTTGTCACGTGCAATG, the “relative binding free energy” value came out at 0.12 kcal/mol.

In the case of GGGTGCACGTGGTGTC, the “relative binding free energy” value is -0.11 kcal/mol.

With TGGGTCACGTGCGCGA, the “relative binding free energy” value was -0.09 kcal/mol.

Consider GGTCTCACGTGCGGGA, for which the “relative binding free energy” value was 0.14 kcal/mol.

Turning to TAGGGCACGTGTCTAA, the “relative binding free energy” value is -0.07 kcal/mol.

As for TAAAGCACGTGAGTTG, the “relative binding free energy” value worked out at 0.23 kcal/mol.

With AGGCGCACGTGATTGG, the “relative binding free energy” value was -0.09 kcal/mol.

In the case of CGGGACACGTGGTATA, the “relative binding free energy” value worked out at 0.04 kcal/mol.

For the sequence AGTTACACGTGGGGCA, the “relative binding free energy” value came out at 0.01 kcal/mol.

For GGAGGCACGTGGCCGG, the “relative binding free energy” value was -0.22 kcal/mol.

Take ACAGTCACGTGGGTGT: the “relative binding free energy” value is -0.21 kcal/mol.

For the sequence GTTAGCACGTGTGAGA, the “relative binding free energy” value turned out to be 0.07 kcal/mol.

Turning to GGATCCACGTGTGGTA, the “relative binding free energy” value was 0.02 kcal/mol.

As for GAGGTCACGTGGCGTT, the “relative binding free energy” value stood at 0.02 kcal/mol.

As for GTAGGCACGTGTATTT, the “relative binding free energy” value came to 0.04 kcal/mol.

As for TTCGGCACGTGTGTTA, the “relative binding free energy” value came to 0.01 kcal/mol.

In the case of CTGTACACGTGGCGGT, the “relative binding free energy” value was 0.01 kcal/mol.
